Structures are written as SMILES. About 2,200 (0.71%) of roughly 310,000 compounds showed an effect of 50% or more. The effect is printed as a negative number. Some of the results follow.

Sequence of human ether-à-go-go-related gene (hERG) potassium channel (Q12809 whole entry, looked up): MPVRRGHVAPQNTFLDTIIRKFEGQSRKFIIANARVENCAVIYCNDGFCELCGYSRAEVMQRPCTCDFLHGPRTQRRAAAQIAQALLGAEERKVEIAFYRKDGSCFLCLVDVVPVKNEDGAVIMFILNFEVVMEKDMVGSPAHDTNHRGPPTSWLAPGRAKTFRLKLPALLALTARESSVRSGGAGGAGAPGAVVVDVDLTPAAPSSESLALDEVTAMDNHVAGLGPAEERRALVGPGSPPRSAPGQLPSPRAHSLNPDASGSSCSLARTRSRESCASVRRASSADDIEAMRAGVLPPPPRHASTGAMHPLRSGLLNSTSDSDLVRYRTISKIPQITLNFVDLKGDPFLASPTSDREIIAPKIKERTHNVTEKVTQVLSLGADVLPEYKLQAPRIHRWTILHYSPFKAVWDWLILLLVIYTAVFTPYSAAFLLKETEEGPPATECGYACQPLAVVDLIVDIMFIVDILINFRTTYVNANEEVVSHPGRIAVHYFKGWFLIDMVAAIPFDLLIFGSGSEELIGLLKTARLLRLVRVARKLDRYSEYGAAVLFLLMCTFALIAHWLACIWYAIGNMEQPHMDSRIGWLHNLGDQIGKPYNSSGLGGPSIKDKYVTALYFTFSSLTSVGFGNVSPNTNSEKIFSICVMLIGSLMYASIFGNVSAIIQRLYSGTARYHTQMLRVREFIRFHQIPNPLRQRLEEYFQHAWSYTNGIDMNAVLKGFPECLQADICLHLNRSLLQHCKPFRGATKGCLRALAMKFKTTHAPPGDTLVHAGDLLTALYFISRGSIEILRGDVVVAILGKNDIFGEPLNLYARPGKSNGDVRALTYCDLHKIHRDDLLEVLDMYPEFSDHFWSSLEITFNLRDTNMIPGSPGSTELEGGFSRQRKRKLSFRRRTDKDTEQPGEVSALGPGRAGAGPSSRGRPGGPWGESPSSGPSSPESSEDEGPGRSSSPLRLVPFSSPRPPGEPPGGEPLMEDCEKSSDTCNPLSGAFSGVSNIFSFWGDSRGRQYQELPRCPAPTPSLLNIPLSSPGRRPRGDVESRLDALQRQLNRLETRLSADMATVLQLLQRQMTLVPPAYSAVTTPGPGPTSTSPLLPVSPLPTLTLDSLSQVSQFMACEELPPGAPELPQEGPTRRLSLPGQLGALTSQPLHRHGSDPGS

The experiment concerns the target human ether-à-go-go-related gene (hERG) potassium channel (human, UniProt Q12809). In words: primary screen, population patch clamp on CHO cells stably expressing hERG.
As for `COc1ccc(/C(C)=N/NC(=O)CNC(=O)CCc2ccccc2)c(OC)c1`, the “hERG current change (%, negative = inhibition) at 1uM” value amounted to 9.77%. The value for `NC(=O)c1c(NC(=O)c2ccccc2)sc2c1CCC2` was 11.4%. The value for `O=C(NCC(=O)N(CC1CCCO1)C(C(=O)NC1CCCCC1)c1cccnc1)c1cccs1` (centres unmarked) was 12.3%.

With `O=Cc1c(Cl)nc2ccccn2c1=O`, the “hERG current change (%, negative = inhibition) at 1uM” value came to 0.383%. The value for `Cc1[nH]nc(-c2ccc(OCc3cnn(-c4ccccc4)c3)cc2O)c1Oc1ccccc1F` was 11.5%. With `CC(C)C(=O)Nc1nc2ccc(S(C)(=O)=O)cc2s1` the figure was 6.1%; with `CCOc1ccc(NC(=O)NCc2ccc3c(c2)OCO3)cc1`, 12%; with `CCOC(=O)c1cnc2nc(C)[nH]n2c1=O`, 9.5%. With `O=C1CN(C(=O)CC2C(=O)NCCN2Cc2ccccc2C(F)(F)F)CCN1` (centres unmarked) the figure was 10.9%. In the case of `O=C(O)CCC(=O)N1CCN(S(=O)(=O)c2cccs2)CC1`, the “hERG current change (%, negative = inhibition) at 1uM” value is reported as 21.4%. `O=C(c1cn(-c2ccccc2)nc1-c1cccnc1)N1CCCC(C(F)(F)F)C1` (centres unmarked): the “hERG current change (%, negative = inhibition) at 1uM” value is on record as -4.05%. Turning to `COc1cc(C)c(NC(=S)NCCCN2CCOCC2)cc1OC`, the “hERG current change (%, negative = inhibition) at 1uM” value is -5.81%. The value for `Cc1ccc(C(=O)N2CCN(S(=O)(=O)c3cc(Br)ccc3Br)CC2)o1` was -0.209%; that for `O=C(CSc1ncccn1)N1CCN(C(=O)CSc2ncccn2)CC1` was -1.62%; that for `COc1ccc(CC(=O)Nc2sc3c(c2C#N)CC(C)(C)NC3(C)C)cc1OC` was 9.58%. With `Cc1c(Cc2ccccc2)c(=O)oc2cc(OCC(=O)c3ccccc3)ccc12` the figure was 10.3%; with `C=CCN1C=CC=C/C1=C1\SC(=S)N(C)C1=O`, 14.2%; with `COc1cccc(Cn2c(=O)c3[nH]cnc3n(-c3ccccc3C)c2=O)c1`, 5.01%. With `Cc1cc(C)c(NC(=O)COC(=O)CCc2ccc(S(=O)(=O)N3CCCCC3)cc2)c(C)c1` the figure was 7.56%; with `O=C(C[n+]1ccccc1)N/N=C/c1ccc(Cl)c(Cl)c1.[Cl-]`, 7.26%. Take `COC(=O)C1=C(N)Oc2cc(C)n(Cc3cccnc3)c(=O)c2C1c1ccc(OC)c(OC)c1` (centres unmarked): the “hERG current change (%, negative = inhibition) at 1uM” value worked out at 0.136%.

As for `O=C(CC1SC(=O)NC1=O)Oc1ccc(/C=N/NC(=O)c2ccccc2O)cc1` (centres unmarked), the “hERG current change (%, negative = inhibition) at 1uM” value was 9.35%. With `CCn1cc(C(=O)N[C@@H](CC(C)C)C(=O)NCCCn2ccnc2)c(=O)c2cc3c(cc21)OCO3` the figure was 17.4%; with `O=C(COC(=O)c1ccc(OC(F)F)cc1)NCCCN1CCCC1=O`, 0.628%; with `O=c1c(-c2nn[nH]n2)coc2ccc(Cl)cc12`, 15.5%.

In the case of `CCOc1ccc(CC(=O)NCc2cn3c(C)csc3n2)cc1`, the “hERG current change (%, negative = inhibition) at 1uM” value came to 13.7%. With `CCC(CC)C(=O)c1c[nH]c(C(=O)NCc2ccccc2)c1` the figure was 8.11%; with `Cc1ccccc1-c1nnn(Cc2cccc(S(=O)(=O)N3CCOCC3)c2)n1`, 10.9%; with `O=C(COc1ccc2c(c1)OCO2)Nc1nncs1`, 11.3%. The value for `N#Cc1nc(COc2ccc(F)cc2)oc1N1CCC(Cc2ccccc2)CC1` was 7.85%. Turning to `CCOc1ccc(NC(=O)CCC(=O)Nc2nnc(CC)s2)cc1`, the “hERG current change (%, negative = inhibition) at 1uM” value is listed as 7.76%. Turning to `Cc1ccc2nc(Cl)c(C3CC(c4ccco4)=NN3S(C)(=O)=O)cc2c1` (centres unmarked), the “hERG current change (%, negative = inhibition) at 1uM” value is reported as -9.31%. The value for `Fc1ccc(CNc2ncccn2)cc1` was 12.1%; that for `CN(CC(=O)Nc1ccccc1Cl)C1CCCCC1` was 6.46%. The value for `CCn1c(SCC(=O)N2CCCC(C)C2)nnc1-c1ccco1` (centres unmarked) was 3.63%; that for `Cc1ccccc1/C=N/Nc1ccnc2cc(Cl)ccc12` was 5.75%. The value for `COC(=O)CNc1nc(Cl)nc(N2CCC(C)CC2)n1` was 11.8%; that for `O=C(CCN1CCN(C(c2ccccc2)c2ccccc2)CC1)N/N=C/c1ccc(O)cc1` was -24.9%. Consider `Cc1ccnc(NC(c2ccccn2)c2c(C)[nH]c3ccccc23)c1` (centres unmarked), for which the “hERG current change (%, negative = inhibition) at 1uM” value came to 7.31%. The value for `COc1cc(NC(=O)C2CC(c3ccc(Cl)cc3)=NO2)cc(OC)c1OC` (centres unmarked) was 14.2%.

For `Cc1cc(/C=C2\C(=O)NC(=O)N(Cc3ccccc3)C2=O)c(C)n1C1CC1`, the “hERG current change (%, negative = inhibition) at 1uM” value worked out at 5.17%.

For `C=CCc1ccccc1OCC(O)CN1CCN(Cc2ccc3c(c2)OCO3)CC1` (centres unmarked), the “hERG current change (%, negative = inhibition) at 1uM” value is reported as -45.4%.

For `COc1ccccc1CNC(=O)CCCn1nc(C)c2c(C)n(-c3ccccc3)nc2c1=O`, the “hERG current change (%, negative = inhibition) at 1uM” value is listed as 7.11%.

Turning to `CN(C)/C=N/c1c(C#N)cnn1C`, the “hERG current change (%, negative = inhibition) at 1uM” value is on record as 6.97%.

The values above are taken from article PMC4336329 (PLoS ONE, 2015).
